In PubChem BioAssay AID1240 (Sanford-Burnham Center for Chemical Genomics, 2008):
Several values for one entry are separate records, joined by “and”; a condition that tells them apart may be missing. Equal values may be shown once. Screen size: about 50,000 compounds; about 800 (1.6%) showed an effect of 50% or more. Some of the results follow.

These molecules were tested against Bcl-2-like protein 10 (Homo sapiens) (UniProt Q9HD36) (assay: Phenotype converters, Bcl-B/TR3 peptide binding displacement, primary biochemical FP (AID 1240;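 also: 0% = Bcl-B with tracer peptide and DMSO and 100% = tracer peptide lacking Bcl-B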)). Conditions: GST-Bcl-B / FITC-TR3 peptide fluorescence polarization; stronger effect = higher value; compound at 3.75 mg/L.
Sequence of UniProt Q9HD36 (Q9HD36 whole entry, looked up): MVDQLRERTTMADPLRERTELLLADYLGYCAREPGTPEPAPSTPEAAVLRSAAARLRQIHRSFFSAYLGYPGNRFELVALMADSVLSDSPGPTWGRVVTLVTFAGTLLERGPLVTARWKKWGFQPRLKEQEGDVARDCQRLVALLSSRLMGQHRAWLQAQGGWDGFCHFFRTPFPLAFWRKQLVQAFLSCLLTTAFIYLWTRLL

SMILES | displacement
COc1ccc(Br)cc1/C=C\C(=O)Nc1cc(C(F)(F)F)ccc1Cl | 1.8%
CC1=C(C(=O)OCC2CCCO2)C(c2ccc(Cl)c(Cl)c2)NC(=O)N1 (centres undefined) | -0.4%
Cc1ccccc1C(=O)NCC1CCCO1 (centres undefined) | 0.7%
COc1ccccc1NC(=O)c1c(NC(=O)c2ccco2)sc2c1CCCC2 | 6.4%
CCOc1ccc(N(CC(=O)Nc2cccc3cccnc23)S(=O)(=O)c2ccccc2)cc1 | -39.5%
CCOC(=O)C1=C(C)N=c2s/c(=C\c3cccs3)c(=O)n2C1c1cccc(OC)c1 (centres undefined) | 12.9%
Cc1cccc(NC(=O)c2ccccc2C(F)(F)F)c1C | 16.5%
COc1ccc(OC)c(NC(=O)c2ccc(C(=O)O)cc2C(=O)O)c1 | 13.1%
O=C(Nc1cccc2nsnc12)c1ccco1 | 4%
CCOC(=O)c1c(NC(=O)c2c(-c3ccccc3Cl)noc2C)sc2c1CCCC2 | -5.8%
CC12CC3CC(C)(C1)CC(CNC(=O)COc1ccccc1)(C3)C2 | 7.8%
CC(=O)n1cc(Nc2ccccc2C(=O)O)c2ccccc21 | -3%
Cc1cc(Cl)cc(C)c1OCCCCCN1CCOCC1 | 3.3%
COc1ccc(C2CC(C(F)(F)F)n3nc(C(=O)N4CCN(C(=O)c5ccccc5)CC4)c(Cl)c3N2)cc1OC (centres undefined) | 11%
CC1=NN(C(=O)c2cccc(Br)c2)C(O)(C(F)(F)F)C1 (centres undefined) | 4.2%
COc1ccc2nc(NC(=O)c3ccc(C(C)(C)C)cc3)sc2c1 | -1.5%
COCCOC(=O)c1ccc(NC(=O)COc2ccccc2)cc1 | 42%
O=C1NCC(c2ccccc2)C1C(=O)N/N=C\c1cc(Cl)ccc1O (centres undefined) | -8.2%
O=C(CSc1nc2ccccc2s1)NCc1ccco1 | -16.4%
CCOC(=O)c1ccc(NC(=O)c2ccc([N+](=O)[O-])s2)cc1 | -4.6%
O=C(Nc1cc([N+](=O)[O-])ccc1C(=O)N1CCC(Cc2ccccc2)CC1)c1ccccc1 | -4.2%
CCOC(=O)N1CCN(C2CC(=O)N(c3cccc(Cl)c3)C2=O)CC1 (centres undefined) | 0.4%

SMILES | displacement
CCOC(=O)C(CCCCOc1ccc([N+](=O)[O-])cc1)C(=O)OCC | 6.3%
Cc1cc(NCCCCO)n2c(nc3ccccc32)c1C#N | 25.9%
COc1ccccc1NC(=O)c1ccc2ccccc2n1 | -2.3%
CCOC(=O)c1c(NC(=O)c2ccc([N+](=O)[O-])cc2Cl)sc2c1CCC2 | -3.5%
COc1ccccc1N1C(=O)c2cccc3c(N(C)C)ccc(c23)C1=O | 42.1%
CCOC(=O)c1[nH]cnc1C(=O)N1CCOCC1 | -1.4% and 9.1%
O=C(Nc1c(O)c2ccccc2[nH]c1=O)c1ccco1 | -6.5%
CC(C)OC(=O)C1C(=O)CC(C)(O)C(C(=O)OC(C)C)C1c1cccnc1 (centres undefined) | 6%
CC(C)CC(=O)N1CCN(Cc2cccc(Cl)c2)CC1 | -17.9%
CC1=CCC(CN(CCCN(C)C)CC2CC=C(C)CC2)CC1 (centres undefined) | -4.9%
COc1ccc(C(=O)NN/C(C)=C\C(=O)c2ccccc2)cc1 | -5.9%
O=S(=O)(c1ccc2c(c1)C(=NO)c1cc(S(=O)(=O)N3CCCC3)ccc1-2)N1CCCC1 | 14.7%
COc1ccc(-c2cc(-c3ccc(Br)cc3)nc(N)c2C#N)cc1 | 70.6%
O=C(c1ccccc1)c1ccc(C(=O)N2CCOCC2)cc1 | -8.7%
CCONC(=Nc1ccccc1OC)c1nonc1N | -7.4%
COc1cc([N+](=O)[O-])cc(/C=N/NC(=O)COc2c(Br)cc(Br)cc2Br)c1O | 9.4%
O=C(/C=C/c1ccc([N+](=O)[O-])cc1)Nc1ccccc1C(=O)Nc1cccc(C(=O)O)c1 | 1.4%
O=C(c1ccccc1O)N1CCCc2ccccc21 | -3.1%
Cc1c(Cl)cccc1-c1ccc(/C=N/N=C2\NC(=O)CS2)o1 | 133%
CC(=O)CCc1oc2ccc(Cl)cc2c1-c1ccc(C)o1 | 7%
O=C(Nc1ccccc1Cl)N1CCN(c2ccc(F)cc2)CC1 | -0.4%
Oc1ccc(Nc2nc(-c3cccs3)cs2)cc1 | 5.5%

SMILES | displacement
Cn1c(/C=N/c2nc3ccccc3n2C)nc2ccccc21 | 3.9%
CSc1ccc(S(=O)(=O)N(CC(=O)Nc2cc(C)ccc2C)c2ccc(C)cc2)cc1 | 3.7%
COc1cc(NC(=O)c2ccccc2F)cc(OC)c1 | -16.2%
CCCOC(=O)c1cccc(NC(=O)c2cccnc2)c1 | -6.6%
CC(=O)Nc1ccccc1NC(=O)c1cccc(F)c1 | -13%
Oc1ccc(Br)cc1CN1CCN(Cc2c[nH]c3ccccc23)CC1 | -2.7%
CCOC(=O)c1c(NC(=O)c2cncc(Br)c2)sc(C)c1C | 15.2%
CCOC(=O)c1c(N)sc2c1CCN(Cc1ccccc1)C2 | -2.2%
COc1ccc(NC(=O)C(=O)/C=C(/O)c2ccccc2)cc1 | 4.9%
COc1ccc(-c2cc(C(=O)Nc3ccccn3)c3ccccc3n2)cc1 | 4.7%
Cc1c(C#N)c2nc3ccccc3n2c(=O)/c1=C/c1sc2ccccc2c1O | 1.1%
CN(C)C=Nc1ccn(Cc2ccccc2)c(=O)c1C#N | -4.1%
O=C(Nc1cc(C(F)(F)F)cc(C(F)(F)F)c1)c1cc2ccccc2o1 | -1.9%
O=C1/C(=C/c2c(Cl)cccc2Cl)SC(=S)N1Cc1ccco1 | 9.8%
COc1ccc(CN2CCN(C3CC4CCC3C4)CC2)c(OC)c1 (centres undefined) | -14.8%
Cc1ccc(C(C)C)c(OCCOc2ccc(/C=C3/SC(=S)N(C)C3=O)cc2)c1 | 12.4%
CCCCCCOc1ccc(N2C(=O)CC(N3CCN(c4ccccn4)CC3)C2=O)cc1 (centres undefined) | 5.1%
Cc1ccc2c(c1)N(C(=O)C(C)N1C(=O)c3ccccc3C1=O)C(C)(C)c1ssc(=S)c1-2 (centres undefined) | 10.1%
Cc1ccc(N2CC(C(=O)Nc3cccc(C)c3C)CC2=O)cc1 (centres undefined) | -12.9%
CC1(C)C(C=C(Cl)Cl)C1C(=O)Nc1ccc(S(N)(=O)=O)cc1 (centres undefined) | 22.3%
CCc1ccc(NC(=O)C(=O)NCCN2CCN(C(=O)C(c3ccccc3)c3ccccc3)CC2)cc1 | 10.5%
CCN(CC)CCN1C(=O)C(O)=C(C(=O)/C=C/c2ccccc2)C1c1ccccc1Cl (centres undefined) | 9.2%

SMILES | displacement
CC(C)c1nnc(NC(=O)Nc2ccc(Cl)cc2)s1 | 2.3%
Cc1ccc([N+](=O)[O-])cc1-c1ccc(-c2nc3sc4c(c3c(=O)[nH]2)CCCC4)o1 | -9.7%
COc1ccccc1N=Cc1c(O)n(-c2ccccc2Cl)c(=O)[nH]c1=O | -6.6%
CCc1ccc(C2Nc3ccccc3NC3=C2C(=O)CC(c2ccc(OC)c(OC)c2)C3)cc1 (centres undefined) | -5.3%
CCc1cccc(NC(=O)c2ccc(Br)o2)c1 | -11.1%
COCCNC(=O)C(=O)Nc1cc(C)cc(C)c1 | 9.1%
O=C(Cc1ccccc1)N/N=C/c1ccc2ccccc2c1 | -4%
CCOC(=O)c1c(NC(=S)NC(=O)c2ccc(OC)cc2)sc2c1CCCCC2 | -0.1%
O=C(CSc1nnnn1-c1ccccc1)Nc1ccc(C(=O)O)cc1 | -23.7%
CC(C)(C)NC(=O)c1ccc(-c2ccc(Br)cc2)o1 | 9.9%
COc1ccc(Cl)cc1NC(=O)c1cc2cc([N+](=O)[O-])ccc2oc1=O | 12.8%
CC1CCN(c2ccc(C=C3C(=O)c4ccccc4C3=O)cc2[N+](=O)[O-])CC1 | -1.4%
Cc1ccc(N(CC(O)Cn2c3ccccc3c3ccccc32)S(C)(=O)=O)cc1 (centres undefined) | 5.5%
Cc1ccc(Cn2c(-c3nonc3N)nc3ccccc32)cc1 | 15.1%
Cc1ccc(NC(=O)/C(=C/c2ccc(N(C)C)cc2)NC(=O)c2ccccc2)cc1 | -3.9%
CCOc1ccc(/C=C2\SC(=NCc3ccccc3)N(Cc3ccccc3)C2=O)cc1 | 5.2%
CCC(=Nc1ccccc1OC)C1=C(O)CC(C)(C)CC1=O | 6.6%
O=C(O)CN1C(=O)c2cccc3c(I)cc(Br)c1c23 | 12%
CCc1c(C#N)c(N)nc(SCC(=O)c2cc3ccccc3oc2=O)c1C#N | 5.7%
COC(=O)C1=C(O)/C(=C\c2cccc(Cl)c2)N=C1C | -3.2%
CCOCCOC(=O)c1ccc(NC(=O)c2ccc(C(=O)C(=O)c3ccccc3)cc2)cc1 | -0.6%
COC(=O)c1c(NC(=O)/C=C/c2ccco2)sc(C)c1C | -12.6%

SMILES | displacement
Cc1ccc2nc(-c3ccc(NC(=S)NC(=O)c4ccco4)cc3)sc2c1 | 44.4%
N/C(=N\OS(=O)(=O)c1ccc([N+](=O)[O-])cc1)c1ccccn1 | 2.1%
Cc1ccc(S(=O)(=O)NCc2ccncc2)cc1[N+](=O)[O-] | -3.8%
CCSc1nnc(NC(=O)/C=C/c2ccc(F)cc2)s1 | -4.2%
Cc1cccc(N=C2NC(=O)/C(=C\c3cccs3)S2)c1C | -3.6%
COc1ccc(CN2CCN(Cc3ccccc3[N+](=O)[O-])CC2)c(OC)c1 | -77.9%
Cc1ccccc1NC(=O)c1c(NC(=O)c2ccc([N+](=O)[O-])cc2)sc2c1CCCC2 | -0.4%
COc1cc([N+](=O)[O-])ccc1-c1ccc(/C=C2\C(=O)NC(=O)N(c3ccc(C)c(C)c3)C2=O)o1 | 75.5%
Clc1ccccc1Cc1noc(-c2ccc(Br)cc2)n1 | 8.2%
CN(Cc1ccccc1)C(NC(=O)c1ccccc1[N+](=O)[O-])C(Cl)(Cl)Cl (centres undefined) | -7.5%
COc1ccccc1C(=O)N1CCN(S(=O)(=O)c2ccc(Cl)cc2)CC1 | -15.8%
CCN1CCCC1CNC(=O)c1cc(OC)c(OC)c(OC)c1 (centres undefined) | 6.8%
N/C(=N\OC(=O)c1cccc(Br)c1)c1ccc(Cl)cc1 | 5.5%
CCc1c(C)c2ccc(OC(=O)c3ccccc3)cc2oc1=O | -1%
Cc1cc(/C=C2/NC(=S)NC2=O)c(C)n1-c1ccc(N2CCOCC2)cc1 | -9%
CCCC(CCC)=C(C#N)C(=O)OCC | 0.7%
COc1ccc(/C=C/C(=O)Nc2c(C(C)C)cccc2C(C)C)cc1OC | 2.5%
CCOc1ccc(N(CC(=O)Nc2ccccc2OC)S(C)(=O)=O)cc1 | -9%
CCCOC(=O)c1c(-c2cc(C)ccc2C)csc1N | -0.6%
Cc1cc(Br)ccc1NC(=O)c1cccc(N(C)C)c1 | -7.6%
O=C(Nc1nncs1)c1cc(-c2cccc(Br)c2)nc2ccccc12 | -22.6%
